The values below come from publication PMC4336329 (PLoS ONE, 2015).

The whole screen tested about 310,000 compounds, of which about 14,000 (4.5%) showed an effect of 50% or more. Effects have a minus sign here. Some of the results follow.
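Note: peak tail current of the secondary pulse compared with the same well before compound.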

Sequence of human ether-à-go-go-related gene (hERG) potassium channel (Q12809 whole entry, looked up): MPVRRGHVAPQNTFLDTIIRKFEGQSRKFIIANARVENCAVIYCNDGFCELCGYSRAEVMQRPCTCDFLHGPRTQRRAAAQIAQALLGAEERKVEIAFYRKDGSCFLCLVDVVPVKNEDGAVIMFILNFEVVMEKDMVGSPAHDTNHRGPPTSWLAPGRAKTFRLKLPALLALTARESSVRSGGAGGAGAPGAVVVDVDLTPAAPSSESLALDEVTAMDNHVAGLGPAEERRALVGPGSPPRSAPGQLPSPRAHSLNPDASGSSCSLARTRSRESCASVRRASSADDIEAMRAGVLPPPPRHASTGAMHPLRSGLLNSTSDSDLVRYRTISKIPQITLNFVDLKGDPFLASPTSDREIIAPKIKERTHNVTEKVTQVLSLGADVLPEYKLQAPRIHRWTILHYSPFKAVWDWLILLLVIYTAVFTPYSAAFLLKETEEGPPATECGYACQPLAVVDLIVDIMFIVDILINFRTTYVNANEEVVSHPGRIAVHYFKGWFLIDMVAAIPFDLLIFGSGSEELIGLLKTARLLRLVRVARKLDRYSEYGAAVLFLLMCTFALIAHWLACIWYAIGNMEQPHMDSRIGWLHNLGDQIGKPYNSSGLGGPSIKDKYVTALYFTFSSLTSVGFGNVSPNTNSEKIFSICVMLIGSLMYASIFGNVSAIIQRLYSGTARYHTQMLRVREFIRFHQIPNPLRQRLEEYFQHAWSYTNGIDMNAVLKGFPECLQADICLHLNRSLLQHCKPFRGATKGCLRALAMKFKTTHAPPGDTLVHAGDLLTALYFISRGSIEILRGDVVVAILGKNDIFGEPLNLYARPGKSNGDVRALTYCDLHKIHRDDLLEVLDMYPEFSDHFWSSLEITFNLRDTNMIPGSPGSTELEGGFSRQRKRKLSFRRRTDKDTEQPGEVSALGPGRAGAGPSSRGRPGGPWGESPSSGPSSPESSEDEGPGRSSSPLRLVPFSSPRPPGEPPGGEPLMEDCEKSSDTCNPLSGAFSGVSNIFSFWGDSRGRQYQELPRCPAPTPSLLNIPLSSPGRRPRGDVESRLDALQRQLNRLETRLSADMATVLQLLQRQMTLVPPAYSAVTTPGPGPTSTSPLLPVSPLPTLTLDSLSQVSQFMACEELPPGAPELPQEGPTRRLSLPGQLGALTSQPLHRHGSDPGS

The experiment concerns the target human ether-à-go-go-related gene (hERG) potassium channel (human, UniProt Q12809). The experiment in a line: primary screen, population patch clamp on CHO cells stably expressing hERG.
Regarding `CC(=O)N1CCc2cc3nc(C)cc(C)c3cc21`, the “hERG current change (%, negative = inhibition) at 10uM” value is -24%.

As for `CCS(=O)(=O)c1ccc(O)c(NC(=O)/C=C/c2ccc(Cl)cc2)c1`, the “hERG current change (%, negative = inhibition) at 10uM” value is reported as -28.5%.

For `CCOC(=O)Nc1ccc(S(=O)(=O)NCc2ccccc2)cc1`, the “hERG current change (%, negative = inhibition) at 10uM” value came out at 8.38%.

In the case of `Cc1ccc(NC(=O)c2c([N+](=O)[O-])c(C(C)(C)C)nn2C)c(C)c1`, the “hERG current change (%, negative = inhibition) at 10uM” value was 20.7%.

On to `O=C(O)c1ccc(C2SCC(=O)N2Cc2ccccc2)cc1` (centres unmarked), for which the “hERG current change (%, negative = inhibition) at 10uM” value is recorded as -0.7%.

Turning to `COc1ccc(C(=O)NNC(=S)NC(=O)c2ccc(F)cc2)cc1Br`, the “hERG current change (%, negative = inhibition) at 10uM” value is on record as 24.8%.

Take `CC(=O)NS(=O)(=O)c1ccc(NC(=O)C2C3C=CC(C3)C2C(=O)O)cc1` (centres unmarked): the “hERG current change (%, negative = inhibition) at 10uM” value is 22.9%.

As for `Cc1nc(NC(CC(C)C)C(=O)O)c2nc(C)oc2n1` (centres unmarked), the “hERG current change (%, negative = inhibition) at 10uM” value is given as -3.03%.

Regarding `O=C(/C=C/c1ccccc1)c1c[nH]c2ccccc12`, the “hERG current change (%, negative = inhibition) at 10uM” value is -2.65%.

Take `O=C(O)C(c1ccccc1)c1ccccc1`: the “hERG current change (%, negative = inhibition) at 10uM” value amounted to 14.5%.

As to `COc1ccc(C(CNc2nc(-c3cccnc3)nc3ccccc23)N(C)C)cc1` (centres unmarked), the “hERG current change (%, negative = inhibition) at 10uM” value is reported as -59.2%.

Take `O=C1OC(Cc2ccccn2)C(O)=C1C1=NCCCCN1` (centres unmarked): the “hERG current change (%, negative = inhibition) at 10uM” value is listed as -8.5%.

Turning to `CCc1nnc(NC(=O)CCC(=O)N2CCN(Cc3ccc(OC)c(F)c3)CC2)s1`, the “hERG current change (%, negative = inhibition) at 10uM” value was determined as 17.8%.

With `COc1cc(-c2nc(CCNC(=O)c3ccco3)cs2)cc(OC)c1OC`, the “hERG current change (%, negative = inhibition) at 10uM” value is reported as -24.7%.

As to `O=C(OCc1cccc(F)c1)c1ccc2c(=O)n3c(nc2c1)CCC3`, the “hERG current change (%, negative = inhibition) at 10uM” value is -29.5%.

Turning to `Cc1ccc(C(C#N)c2ccc(Cl)nn2)cc1` (centres unmarked), the “hERG current change (%, negative = inhibition) at 10uM” value was found to be 2.24%.

For the compound `C/C(=N\NC(=S)NCc1ccccc1)c1ccc2c(c1)OCCO2`, the “hERG current change (%, negative = inhibition) at 10uM” value is 7.77%.

As for `CCOC(=O)C1(Cc2cccc(OC)c2)CCN(Cc2cccnc2)CC1`, the “hERG current change (%, negative = inhibition) at 10uM” value is on record as -16.4%.

Consider `Br.CCCCCCCCCn1ccc(=N)cc1`, for which the “hERG current change (%, negative = inhibition) at 10uM” value is on record as -66%.

For the compound `Cc1nc2c(c(=O)n1CCC(C)C)c1nc3ccccc3nc1n2Cc1ccc2c(c1)OCO2`, the “hERG current change (%, negative = inhibition) at 10uM” value is -5.25%.

As for `COc1ccc(C(=O)Nn2c(SCc3ccc([N+](=O)[O-])cc3)nc3ccccc3c2=O)cc1`, the “hERG current change (%, negative = inhibition) at 10uM” value is listed as -2.53%.

Turning to `Cc1cccc(C)c1NC(=O)CSc1nnc(NC(=O)C2CC2)s1`, the “hERG current change (%, negative = inhibition) at 10uM” value was 24.7%.

With `O=C(N/N=C/c1ccncc1)c1cc2ccccc2cc1O`, the “hERG current change (%, negative = inhibition) at 10uM” value is reported as -10%.

For `CCCCNC(=O)N1CCc2[nH]c3ccccc3c2C1`, the “hERG current change (%, negative = inhibition) at 10uM” value is given as -6.46%.

With `CCN(CC)CCOc1c(Br)ccc2c1sc1nc3n(c(=O)c12)CCC3`, the “hERG current change (%, negative = inhibition) at 10uM” value is given as -12.4%.

Consider `c1ccc2ccccc2c1`, for which the “hERG current change (%, negative = inhibition) at 10uM” value came to 20.9%.

For the compound `C=CCN1C(=O)/C(=C\c2cc(Br)c(OCc3ccccn3)c(OC)c2)SC1=S`, the “hERG current change (%, negative = inhibition) at 10uM” value is on record as 14.2%.

`Cc1ccc(NC(=O)c2ccc(F)cc2)nc1`: the “hERG current change (%, negative = inhibition) at 10uM” value is 3.9%.

For `N#Cc1c(-c2cccnc2)c2c([nH]c1=O)-c1ccccc1OC2`, the “hERG current change (%, negative = inhibition) at 10uM” value was -2.55%.

Take `COc1ccc(C(=O)COC(=O)[C@H](C)Nc2ccc(C(F)(F)F)cc2[N+](=O)[O-])c(OC)c1`: the “hERG current change (%, negative = inhibition) at 10uM” value is listed as 1.12%.

`CSc1ccc(-c2nnn(Cc3ccc(C)cc3)n2)cc1`: the “hERG current change (%, negative = inhibition) at 10uM” value turned out to be 13.6%.

For `C#CCn1c(S(=O)(=O)Cc2ccccc2Cl)nc(-c2ccccc2)c1-c1ccccc1`, the “hERG current change (%, negative = inhibition) at 10uM” value is -7.04%.

Take `CC1CCCCN1CC(O)COCc1ccc(Cl)cc1` (centres unmarked): the “hERG current change (%, negative = inhibition) at 10uM” value is recorded as -21.7%.

For `CCOC(=O)/C=C1\CN(Cc2ccc(OC)cc2)S(=O)(=O)c2ccccc21`, the “hERG current change (%, negative = inhibition) at 10uM” value amounted to 2.96%.

Take `OCCC1CN(C2CCN(c3ccccc3F)CC2)CCN1Cc1ccccc1` (centres unmarked): the “hERG current change (%, negative = inhibition) at 10uM” value is listed as -61.8%.

Take `COc1ccc(CN(C)C(=O)c2ccccc2OCc2c(C)noc2C)c(OC)c1`: the “hERG current change (%, negative = inhibition) at 10uM” value is -6.51%.

With `CCOC(=O)CNC(=O)c1sc(NC(=O)c2ccccc2F)nc1C`, the “hERG current change (%, negative = inhibition) at 10uM” value worked out at 3.36%.

In the case of `COc1ccccc1NCC(=O)N/N=C/c1cccnc1`, the “hERG current change (%, negative = inhibition) at 10uM” value is listed as -12.8%.

For `CNCCc1ccc(O)c(O)c1.Cl`, the “hERG current change (%, negative = inhibition) at 10uM” value is reported as 12.7%.

For `CC(=O)c1ccc2c(c1)Nc1ccccc1S2`, the “hERG current change (%, negative = inhibition) at 10uM” value worked out at 0.805%.

Turning to `O=C(Nc1ccc(N2CCOCC2)cc1)c1cc2ccccc2o1`, the “hERG current change (%, negative = inhibition) at 10uM” value stood at 4.38%.

With `O=C(C1CCCN(S(=O)(=O)c2ccc(Br)s2)C1)N1CCCCCC1` (centres unmarked), the “hERG current change (%, negative = inhibition) at 10uM” value is given as -11.8%.

`Cc1cc(C)c(NC(=O)CC(=O)c2ccccc2)c(Cl)c1`: the “hERG current change (%, negative = inhibition) at 10uM” value worked out at 15.4%.

Turning to `COc1ccc(S(=O)(=O)N2CCCCC2)cc1NC(=O)C1CC1`, the “hERG current change (%, negative = inhibition) at 10uM” value was -9.08%.

In the case of `Cc1ccc(C)c(N(C(=O)c2csnn2)C(C(=O)NC2CCCC2)c2cccnc2)c1` (centres unmarked), the “hERG current change (%, negative = inhibition) at 10uM” value is listed as 1.16%.

Consider `Cc1ccc(N(C(=O)c2csnn2)C(C(=O)NC2CCCCC2)c2ccco2)cc1` (centres unmarked), for which the “hERG current change (%, negative = inhibition) at 10uM” value is recorded as -13.2%.

For `Nc1cc(S(=O)(=O)Nc2ccccc2Cl)ccc1N1CCCC1`, the “hERG current change (%, negative = inhibition) at 10uM” value is -1.23%.

For the compound `O=C(NNC1CC(=O)N(c2ccc(Cl)cc2)C1=O)c1ccccc1Cl` (centres unmarked), the “hERG current change (%, negative = inhibition) at 10uM” value was 8.19%.

With `O=C(Cc1cccs1)Nc1nnc(SCc2ccc(F)cc2)s1`, the “hERG current change (%, negative = inhibition) at 10uM” value turned out to be 11.2%.

For the compound `COc1ccc(C(C#N)=C2C=CC(=NO)C=C2)cc1`, the “hERG current change (%, negative = inhibition) at 10uM” value is on record as -3.38%.

Regarding `CN(Cc1ccccc1)C(=O)c1cc2ccccc2o1`, the “hERG current change (%, negative = inhibition) at 10uM” value is recorded as -23%.

For `Oc1ccccc1-c1n[nH]c(=S)n1Cc1ccccc1`, the “hERG current change (%, negative = inhibition) at 10uM” value was 28.3%.

As to `CCOc1ccc(/C(O)=C2/C(=O)C(=O)N(CCN(CC)CC)C2c2ccco2)cc1` (centres unmarked), the “hERG current change (%, negative = inhibition) at 10uM” value was -10%.

Regarding `Cc1ccccc1Cn1cnc2c([N+](=O)[O-])c(C)c(C)cc21`, the “hERG current change (%, negative = inhibition) at 10uM” value is recorded as -21.4%.

In the case of `C=CCn1c(C(C)NC(=O)COC)nc2ccccc21` (centres unmarked), the “hERG current change (%, negative = inhibition) at 10uM” value worked out at 18.7%.

`COc1ccc(C(=O)N2CCC(n3nnc4cc(F)ccc43)CC2)cc1OC`: the “hERG current change (%, negative = inhibition) at 10uM” value was -61.6%.

As to `O=C(NCCOc1ccccc1Cl)C(=O)Nc1ccccc1`, the “hERG current change (%, negative = inhibition) at 10uM” value is reported as -0.069%.

In the case of `Cc1ccc(S(=O)(=O)N(Cc2cc3cccc(C)c3[nH]c2=O)c2ccccc2)cc1`, the “hERG current change (%, negative = inhibition) at 10uM” value is reported as 9.11%.

Take `CC(C)C(C)NC(=O)COc1ccc(OCc2ccccc2)cc1` (centres unmarked): the “hERG current change (%, negative = inhibition) at 10uM” value is 3.26%.
